# Measured values published in PubChem BioAssay AID686978 (National Center for Advancing Translational Sciences (NCATS), 2013).
# About 64,000 (15%) of roughly 420,000 compounds were called active. The shares of active, inactive and inconclusive entries below differ from those in the screen. The call rests on the fitted dose curve; in most records, active means well fitted inhibition curve with a large enough effect; inconclusive means small, poorly fitted or top-dose-only effect; inactive means flat fitted curve, though single readings scatter. Potencies of inconclusive entries are left out as doubtful fits.
# Assay: qHTS for Inhibitors of human tyrosyl-DNA phosphodiesterase 1 (TDP1): qHTS in cells in absence of CPT; further: nearly all actives have a fitted effect of over 55% in size
# Conditions: DT40 Tdp1-/- hTDP1 cells, no CPT, ATP luminescence, 48 h; activity change, negative = growth inhibition: at 46.2 µM (top of the series) unless noted
# Method in brief: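 Growth kinetics read by CellTiter-Glo luminescence after ≥48 hr at 37 °C. Cells: DT40 Tdp1-/- stably carrying human TDP1, 400 per well, compound exposure in the absence of CPT (DMSO vehicle).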
# On the % scale 0 is the no-effect control and ±100 the full control effect; potency means the concentration at half of the fitted maximal effect; tags describe the fitted curve by direction and shape.
Compound,Potency,"activity change, negative = growth inhibition"
COc1ccccc1NC(C)C(=O)c1c[nH]c2ccccc12 (stereo not drawn),"inconclusive [inhibitor, single point]",–
COc1ccccc1Cc1c(-c2ccc(F)cc2)nc2c(C)cc(Br)cn12,"inconclusive [inhibitor, single point]",–
O=C(NC1CC1)C1CCN(C(=O)c2ccccc2Cl)CC1,–,inactive: -13.9%
COc1ccc(C)cc1-n1cnc2cc(C(=O)NC3CCCCCC3)ccc21,"inconclusive [inhibitor, single point]",–
OCCCCCNc1ncnc2ccccc12,active: 7.31 µM,–
CCN(CC)c1nc2ccccc2nc1C(C#N)C(=O)NCCc1ccccc1 (stereo not drawn),"inconclusive [inhibitor, single point]",–
Cn1c(SCC(=O)Nc2nc3ccccc3s2)ncc(C(=O)Nc2ccccc2)c1=O,–,inactive: 1.45%
COc1cccc(CNC(=O)CN2C(=O)N(c3ccc(C)cc3C)S(=O)(=O)c3ccccc32)c1OC,active: 20.6 µM,–
O=C(NC(=S)Nc1ccc(N2CCOCC2)cc1)c1ccc2c(c1)OCCO2,active: 23.1 µM,–
O=C(CSc1nnc(-c2ccc(OC(F)F)cc2)o1)NCc1cccs1,–,inconclusive: -30.8% [inhibitor]
CCCOc1ccc(C(=O)Nc2ccc(N3CCN(C(C)=O)CC3)cc2)cc1,"inconclusive [inhibitor, single point]",–
O=C(CSc1nccn1-c1cccc(Cl)c1)Nc1cccc2ccccc12,"inconclusive [inhibitor, single point]",–
CCOc1ccc(NC(=O)CC2C(=O)N(c3ccc(OC)cc3)C(=O)N2Cc2ccc(OC)cc2)cc1 (stereo not drawn),"inconclusive [inhibitor, single point]",–
O=C(NCCc1ccccc1)c1cc(-c2ccco2)on1,"inconclusive [inhibitor, partial curve]",–
O=C(/C(=C/c1ccccc1)n1cncn1)c1ccc(Cl)cc1Cl,"inconclusive [inhibitor, single point]",–
Cc1ccc(C(=O)N2CCN(c3ccccc3F)CC2)cc1S(=O)(=O)N1CCOCC1,"inconclusive [inhibitor, single point]",–
CCC[N+](CC#Cc1ccccc1)(CCC)CC(=O)OC,–,inactive: 4.32%
CN1CC(=O)N2C(c3ccc(Cl)cc3)c3[nH]c4ccccc4c3C[C@H]2C1=O (stereo partly drawn),"inconclusive [inhibitor, single point]",–
O=C(Cc1ccc(NC(=O)C2CCCN(C(=O)C3CCC3)C2)cc1)Nc1cccc(C(=O)N2CCCCC2)c1 (stereo not drawn),"inconclusive [inhibitor, single point]",–
O=C(O)c1c(-c2ccccc2)oc2ccc(OCc3c(F)cccc3Cl)cc12,–,inactive: -10.3%
CCCC(=O)NC(=S)Nc1cccc(Cl)c1N1CCCCC1,"inconclusive [inhibitor, single point]",–
COc1cccc(C(=O)Nc2cccc(-c3nc4ncccn4c3C)c2)c1,"inconclusive [inhibitor, single point]",–
C=CCOC(=O)C1=C(C)NC(SCC(N)=O)=C(C#N)C1c1ccc(C)cc1 (stereo not drawn),"inconclusive [inhibitor, single point]",–

Compound,Potency,"activity change, negative = growth inhibition"
CCCCCCCn1c(C)nnc1-c1cnn(C)c1N,–,inactive: 6.52%
COC(=O)c1c(OCc2ccccn2)cc(=O)n2c1CCN(Cc1ccc3nsnc3c1)CC2,"inconclusive [inhibitor, single point]",–
COc1cc(/C=N/Nc2nc(Nc3ccccc3)nc(N3CCCCC3)n2)ccc1OCC(=O)O,"inconclusive [inhibitor, single point]",–
Cn1c(SC2=CS(=O)(=O)c3ccccc32)nc2ccccc21,active: 2.91 µM,–
Cn1c(C(=O)NCC2CCCO2)cc2c(=O)n(C)c3ccccc3c21 (stereo not drawn),"inconclusive [inhibitor, partial curve, poor fit]",–
Cc1ccc(S(=O)(=O)NCc2ccccc2)cc1C(=O)N1CC(C)CC(C)C1 (stereo not drawn),active: 18.4 µM,–
C=CCSc1nnc(C)c(/C=C/Nc2ccc(Cl)cc2)n1,"inconclusive [inhibitor, single point]",–
COc1ccc(-c2nc3cc(C)ccn3c2NC(=O)c2cccc(F)c2)cc1,"inconclusive [inhibitor, single point]",–
CCOc1ccccc1NC(=O)CN1CCc2ccccc2C1,"inconclusive [inhibitor, single point]",–
COc1ccc(NC(=O)c2cccn(CC=C(C)C)c2=O)cc1,–,inactive: -27.5%
NC(=O)[C@@H]1CC2(CC(c3cccc(NC(=O)COc4ccc(Cl)cc4)c3)=NO2)CN1C(=O)c1ccccc1 (stereo partly drawn),"inconclusive [inhibitor, partial curve]",–
Cc1nc(-c2ccc(F)cc2)c(CC(=O)N(C)CC(=O)Nc2ccccc2Cl)s1,"inconclusive [inhibitor, partial curve]",–
O=c1[nH]c(C(Cl)Cl)nc2sc3c(c12)CCN(Cc1ccccc1)C3,"inconclusive [inhibitor, single point]",–
Nc1nc(-c2ccccc2)ns1,–,inactive: -11%
Cc1ccc2c(c1)c1c(n2CC(O)CNC2CCCC2)CCCC1 (stereo not drawn),"inconclusive [inhibitor, single point]",–
CCc1ccccc1Oc1ccc(S(=O)(=O)N2CCN(C)CC2)cn1,"inconclusive [inhibitor, single point]",–
COc1ccc(CCNC(=O)C2CCN(Cc3nc(-c4ccc(OC)c(OC)c4)oc3C)CC2)cc1OC,"inconclusive [inhibitor, single point]",–
CCOC(=O)N1CCN(c2c(NCc3ccc(Cl)cc3)c(=O)c2=O)CC1,active: 5.8 µM,–
Cc1nc(C(F)(F)F)ccc1C(=O)N1CCC1(C)C(=O)NS(=O)(=O)c1cccc(F)c1 (stereo not drawn),–,inactive: 0.877%
O=P(c1ccccc1)(c1ccccc1)C(c1ccccn1)P(=O)(c1ccccc1)c1ccccc1,"inconclusive [inhibitor, single point]",–
NC(=O)C1=C(c2ccccc2)c2ccccc2C1=O,active: 5.17 µM,–
O=C(NCC1CCCO1)c1ccccc1-c1nc(-c2ccc(Cl)cc2)no1 (stereo not drawn),active: 18.4 µM,–
CC1(C(=O)NC(=S)N(CCC#N)c2ccccc2)CC1(Cl)Cl (stereo not drawn),"inconclusive [inhibitor, single point]",–

Compound,Potency,"activity change, negative = growth inhibition"
CN(C(=O)COC(=O)Cc1c(F)cccc1Cl)c1c(N)n(Cc2ccccc2)c(=O)[nH]c1=O,–,inactive: 1.66%
COc1ccccc1NC(=O)C(C)NC(c1ccccc1)c1ccccc1 (stereo not drawn),"inconclusive [inhibitor, single point]",–
CCCCn1nnc(NC(=S)NC(=O)c2cccs2)n1,"inconclusive [inhibitor, partial curve]",–
N#Cc1c(N)n(CCOC(=O)c2cccc(Br)c2)c2nc3ccccc3nc12,"inconclusive [inhibitor, single point]",–
CC(C)(C)c1nc2ccccc2c2nnc(SCC(=O)NCc3ccco3)n12,"inconclusive [inhibitor, partial curve, poor fit]",–
O=C(CSC1=NCCN1)Nc1cccc([N+](=O)[O-])c1,active: 20.6 µM,–
O=C(/C=C/c1c(F)cccc1Cl)Nc1nc2ccccc2[nH]1,"inconclusive [inhibitor, partial curve, poor fit]",–
CCc1ccccc1NC(=O)CN1CCN(C(=O)c2cccc(-n3cnnn3)c2)CC1,–,inactive: -8.64%
CCOc1ccccc1C(=O)N/N=C/c1coc2ccc(Cl)cc2c1=O,"inconclusive [inhibitor, single point]",–
CN(CC(=O)Nc1cccc(F)c1)C(=O)CSc1ccc(Br)cc1,"inconclusive [inhibitor, single point]",–
CN(C)S(=O)(=O)c1ccc(C(=O)N2CCC(c3nc4ccccc4o3)CC2)cc1,"inconclusive [inhibitor, single point]",–
Cc1ccccc1NC(=O)CSc1nc2ccc(Nc3nc(N4CCOCC4)nc(N4CCOCC4)n3)cc2s1,active: 14.6 µM,–
COC(=O)[C@@]12C[C@@H](CC(=O)NCc3ccc(OC)c(OC)c3)C(=O)N(Cc3ccc4c(c3)OCO4)C1=CCC(C)(C)C2,active: 25.9 µM,–
O=c1[nH]c2ccccc2n1CCCSCCCn1c(=O)[nH]c2ccccc21,"inconclusive [inhibitor, partial curve, poor fit]",–
Oc1ccc2sc(-c3ccccc3O)c(-c3ccc(OCCN4CCCCC4)cc3)c2c1,"inconclusive [inhibitor, single point]",–
O=C(COC(=O)/C=C/C(=O)OCC(=O)NC12CC3CC(CC(C3)C1)C2)NC12CC3CC(CC(C3)C1)C2,active: 14.6 µM,–
CCOC(=O)C1=C(C)Nc2ccccc2N/C1=N\S(=O)(=O)c1ccc(Cl)cc1,"inconclusive [inhibitor, single point]",–
CCN(CC)C(=O)Cn1c(=O)n(CC2CCC(C(=O)NC)CC2)c(=O)c2sccc21 (stereo not drawn),–,inactive: -14.2%
O=C(Nc1ccccc1Cl)C1CCCN1C(=O)OCc1ccccc1 (stereo not drawn),–,inactive: -1.64%
O=C(c1ccc(C(F)(F)F)cc1)C1CCCN(C(=O)CCN2CCCO2)C1 (stereo not drawn),–,inconclusive: -35.4% [inhibitor]
OC(c1cc(F)cc(Cl)c1)c1ncc(-c2ccc3ccccc3c2)[nH]1 (stereo not drawn),active: 13 µM,–
O=C(CCc1nc(-c2ccccc2)no1)NCc1ccccc1CN1CCOCC1,"inconclusive [inhibitor, single point]",–
